Experiment [1] addresses T1, recombinant human TNFα (CytoLab) (human, UniProt P01375 in part).
T1 construct: coated on the ELISA plate at 1 µg/ml; also called Tumour necrosis factor alpha
Kind of experiment: ELISA on coated human TNFα.

Experiment [2] has as its target recombinant human TNFα (human, UniProt P01375 in part). Description: cell-based or functional assay.

B1: TNFα dAb Fc variant G57Q (Fc fusion, name in Kabat numbering)
chain: DIQMTQSPSSLSASVGDRVTITCRASQAIDSYLHWYQQKPGKAPKLLIYSASNLETQVPSRFSGSGSGTDFTLTISSLLPEDFATYYCQQVVWRPFTFGQGTKVEIKRV[human IgG1 Fc with changes left out]
Consider B1, for which, in experiment [1], the “A450 (AU)” value was determined as 1.11 AU. For the same molecule, the Standardized EC50, L929 neutralization assay (5-point) in experiment [2] was determined as 0.761 µg/mL.

B2: TNFα dAb Fc variant G66Q (Fc fusion, name in Kabat numbering)
chain: DIQMTQSPSSLSASVGDRVTITCRASQAIDSYLHWYQQKPGKAPKLLIYSASNLETGVPSRFSGSQSGTDFTLTISSLLPEDFATYYCQQVVWRPFTFGQGTKVEIKRV[human IgG1 Fc with changes left out]
Consider B2, for which, in experiment [1], the “A450 (AU)” value amounted to 0.972 AU. Besides, the Standardized EC50, L929 neutralization assay (5-point) in experiment [2] worked out at 2170 µg/mL.

B3: TNFα dAb Fc variant K39S (Fc fusion, name in Kabat numbering)
chain: DIQMTQSPSSLSASVGDRVTITCRASQAIDSYLHWYQQSPGKAPKLLIYSASNLETGVPSRFSGSGSGTDFTLTISSLLPEDFATYYCQQVVWRPFTFGQGTKVEIKRV[human IgG1 Fc with changes left out]
Regarding B3, the “A450 (AU)” value in experiment [1] was determined as 1 AU. Also, in experiment [2], the Standardized EC50, L929 neutralization assay (5-point) came out at 1.6 µg/mL.

B4: TNFα dAb Fc variant K42A (Fc fusion, name in Kabat numbering)
chain: DIQMTQSPSSLSASVGDRVTITCRASQAIDSYLHWYQQKPGAAPKLLIYSASNLETGVPSRFSGSGSGTDFTLTISSLLPEDFATYYCQQVVWRPFTFGQGTKVEIKRV[human IgG1 Fc with changes left out]
With B4, the “A450 (AU)” value in experiment [1] stood at 0.872 AU. Further, the Standardized EC50, L929 neutralization assay (5-point) in experiment [2] worked out at 0.723 µg/mL.

B5: TNFα dAb Fc variant K45S (Fc fusion, name in Kabat numbering)
chain: DIQMTQSPSSLSASVGDRVTITCRASQAIDSYLHWYQQKPGKAPSLLIYSASNLETGVPSRFSGSGSGTDFTLTISSLLPEDFATYYCQQVVWRPFTFGQGTKVEIKRV[human IgG1 Fc with changes left out]
B5: in experiment [1], the “A450 (AU)” value stood at 1.04 AU. Also, the Standardized EC50, L929 neutralization assay (5-point) in experiment [2] came out at 0.537 µg/mL.

B6: TNFα dAb Fc variant G64S (Fc fusion, name in Kabat numbering)
chain: DIQMTQSPSSLSASVGDRVTITCRASQAIDSYLHWYQQKPGKAPKLLIYSASNLETGVPSRFSSSGSGTDFTLTISSLLPEDFATYYCQQVVWRPFTFGQGTKVEIKRV[human IgG1 Fc with changes left out]
As for B6, the “A450 (AU)” value in experiment [1] stood at 0.907 AU. The Standardized EC50, L929 neutralization assay (5-point) in experiment [2] is 2.35 µg/mL.

B7: TNFα dAb Fc variant K42H (Fc fusion, name in Kabat numbering)
chain: DIQMTQSPSSLSASVGDRVTITCRASQAIDSYLHWYQQKPGHAPKLLIYSASNLETGVPSRFSGSGSGTDFTLTISSLLPEDFATYYCQQVVWRPFTFGQGTKVEIKRV[human IgG1 Fc with changes left out]
As for B7, in experiment [1], the “A450 (AU)” value is 1.07 AU. Also, in experiment [2], the Standardized EC50, L929 neutralization assay (5-point) stood at 2.26 µg/mL.

B8: TNFα dAb Fc variant K42S (Fc fusion, name in Kabat numbering)
chain: DIQMTQSPSSLSASVGDRVTITCRASQAIDSYLHWYQQKPGSAPKLLIYSASNLETGVPSRFSGSGSGTDFTLTISSLLPEDFATYYCQQVVWRPFTFGQGTKVEIKRV[human IgG1 Fc with changes left out]
In the case of B8, in experiment [1], the “A450 (AU)” value worked out at 1.09 AU. In addition, the Standardized EC50, L929 neutralization assay (5-point) in experiment [2] is 0.995 µg/mL.

B9: TNFα dAb Fc variant G68D (Fc fusion, name in Kabat numbering)
chain: DIQMTQSPSSLSASVGDRVTITCRASQAIDSYLHWYQQKPGKAPKLLIYSASNLETGVPSRFSGSGSDTDFTLTISSLLPEDFATYYCQQVVWRPFTFGQGTKVEIKRV[human IgG1 Fc with changes left out]
Consider B9, for which, in experiment [1], the “A450 (AU)” value was found to be 1 AU. The Standardized EC50, L929 neutralization assay (5-point) in experiment [2] worked out at 6.36 µg/mL.

B10: TNFα dAb Fc variant G66K (Fc fusion, name in Kabat numbering)
chain: DIQMTQSPSSLSASVGDRVTITCRASQAIDSYLHWYQQKPGKAPKLLIYSASNLETGVPSRFSGSKSGTDFTLTISSLLPEDFATYYCQQVVWRPFTFGQGTKVEIKRV[human IgG1 Fc with changes left out]
Consider B10, for which, in experiment [1], the “A450 (AU)” value worked out at 0.968 AU. The Standardized EC50, L929 neutralization assay (5-point) in experiment [2] worked out at 542 µg/mL.

B11: TNFα dAb Fc variant K45Q (Fc fusion, name in Kabat numbering)
chain: DIQMTQSPSSLSASVGDRVTITCRASQAIDSYLHWYQQKPGKAPQLLIYSASNLETGVPSRFSGSGSGTDFTLTISSLLPEDFATYYCQQVVWRPFTFGQGTKVEIKRV[human IgG1 Fc with changes left out]
With B11, the “A450 (AU)” value in experiment [1] is 1.06 AU. The Standardized EC50, L929 neutralization assay (5-point) in experiment [2] was found to be 4.42 µg/mL.

B12: TNFα dAb Fc variant G68S (Fc fusion, name in Kabat numbering)
chain: DIQMTQSPSSLSASVGDRVTITCRASQAIDSYLHWYQQKPGKAPKLLIYSASNLETGVPSRFSGSGSSTDFTLTISSLLPEDFATYYCQQVVWRPFTFGQGTKVEIKRV[human IgG1 Fc with changes left out]
As for B12, in experiment [1], the “A450 (AU)” value turned out to be 1.01 AU. The Standardized EC50, L929 neutralization assay (5-point) in experiment [2] amounted to 2.54 µg/mL.

B13: TNFα dAb Fc variant K45L (Fc fusion, name in Kabat numbering)
chain: DIQMTQSPSSLSASVGDRVTITCRASQAIDSYLHWYQQKPGKAPLLLIYSASNLETGVPSRFSGSGSGTDFTLTISSLLPEDFATYYCQQVVWRPFTFGQGTKVEIKRV[human IgG1 Fc with changes left out]
As for B13, in experiment [1], the “A450 (AU)” value is 1.11 AU. Moreover, the Standardized EC50, L929 neutralization assay (5-point) in experiment [2] was determined as 1.27 µg/mL.

B14: TNFα dAb Fc variant K45A (Fc fusion, name in Kabat numbering)
chain: DIQMTQSPSSLSASVGDRVTITCRASQAIDSYLHWYQQKPGKAPALLIYSASNLETGVPSRFSGSGSGTDFTLTISSLLPEDFATYYCQQVVWRPFTFGQGTKVEIKRV[human IgG1 Fc with changes left out]
With B14, the “A450 (AU)” value in experiment [1] is 0.865 AU. Also, the Standardized EC50, L929 neutralization assay (5-point) in experiment [2] amounted to 2.21 µg/mL.

B15: TNFα dAb Fc variant L79H (Fc fusion, name in Kabat numbering)
chain: DIQMTQSPSSLSASVGDRVTITCRASQAIDSYLHWYQQKPGKAPKLLIYSASNLETGVPSRFSGSGSGTDFTLTISSLHPEDFATYYCQQVVWRPFTFGQGTKVEIKRV[human IgG1 Fc with changes left out]
Take B15: the “A450 (AU)” value in experiment [1] was determined as 1.3 AU. The Standardized EC50, L929 neutralization assay (5-point) in experiment [2] is 1.34 µg/mL.

B16: TNFα dAb Fc variant G57S (Fc fusion, name in Kabat numbering)
chain: DIQMTQSPSSLSASVGDRVTITCRASQAIDSYLHWYQQKPGKAPKLLIYSASNLETSVPSRFSGSGSGTDFTLTISSLLPEDFATYYCQQVVWRPFTFGQGTKVEIKRV[human IgG1 Fc with changes left out]
With B16, the “A450 (AU)” value in experiment [1] was determined as 1.08 AU. Besides, the Standardized EC50, L929 neutralization assay (5-point) in experiment [2] is 0.618 µg/mL.

B17: TNFα dAb Fc variant G66Y (Fc fusion, name in Kabat numbering)
chain: DIQMTQSPSSLSASVGDRVTITCRASQAIDSYLHWYQQKPGKAPKLLIYSASNLETGVPSRFSGSYSGTDFTLTISSLLPEDFATYYCQQVVWRPFTFGQGTKVEIKRV[human IgG1 Fc with changes left out]
Regarding B17, the “A450 (AU)” value in experiment [1] turned out to be 0.909 AU. Besides, the Standardized EC50, L929 neutralization assay (5-point) in experiment [2] amounted to 2.44 µg/mL.

B18: TNFα dAb Fc variant L79D (Fc fusion, name in Kabat numbering)
chain: DIQMTQSPSSLSASVGDRVTITCRASQAIDSYLHWYQQKPGKAPKLLIYSASNLETGVPSRFSGSGSGTDFTLTISSLDPEDFATYYCQQVVWRPFTFGQGTKVEIKRV[human IgG1 Fc with changes left out]
In the case of B18, the “A450 (AU)” value in experiment [1] was 1.61 AU. For the same molecule, the Standardized EC50, L929 neutralization assay (5-point) in experiment [2] came out at 0.766 µg/mL.

B19: TNFα dAb Fc variant K42Q (Fc fusion, name in Kabat numbering)
chain: DIQMTQSPSSLSASVGDRVTITCRASQAIDSYLHWYQQKPGQAPKLLIYSASNLETGVPSRFSGSGSGTDFTLTISSLLPEDFATYYCQQVVWRPFTFGQGTKVEIKRV[human IgG1 Fc with changes left out]
Regarding B19, the “A450 (AU)” value in experiment [1] stood at 0.903 AU. In experiment [2], the Standardized EC50, L929 neutralization assay (5-point) was determined as 1.06 µg/mL.

B20: TNFα dAb Fc variant K45D (Fc fusion, name in Kabat numbering)
chain: DIQMTQSPSSLSASVGDRVTITCRASQAIDSYLHWYQQKPGKAPDLLIYSASNLETGVPSRFSGSGSGTDFTLTISSLLPEDFATYYCQQVVWRPFTFGQGTKVEIKRV[human IgG1 Fc with changes left out]
B20: in experiment [1], the “A450 (AU)” value is 1.19 AU. In experiment [2], the Standardized EC50, L929 neutralization assay (5-point) is 1.4 µg/mL.

B21: TNFα dAb Fc variant K42L (Fc fusion, name in Kabat numbering)
chain: DIQMTQSPSSLSASVGDRVTITCRASQAIDSYLHWYQQKPGLAPKLLIYSASNLETGVPSRFSGSGSGTDFTLTISSLLPEDFATYYCQQVVWRPFTFGQGTKVEIKRV[human IgG1 Fc with changes left out]
For B21, the “A450 (AU)” value in experiment [1] was 0.816 AU. Moreover, the Standardized EC50, L929 neutralization assay (5-point) in experiment [2] is 1.23 µg/mL.

B22: TNFα dAb Fc variant L79A (Fc fusion, name in Kabat numbering)
chain: DIQMTQSPSSLSASVGDRVTITCRASQAIDSYLHWYQQKPGKAPKLLIYSASNLETGVPSRFSGSGSGTDFTLTISSLAPEDFATYYCQQVVWRPFTFGQGTKVEIKRV[human IgG1 Fc with changes left out]
B22: the “A450 (AU)” value in experiment [1] was determined as 1.38 AU. Besides, the Standardized EC50, L929 neutralization assay (5-point) in experiment [2] stood at 1.35 µg/mL.

B23: TNFα dAb Fc variant K45Y (Fc fusion, name in Kabat numbering)
chain: DIQMTQSPSSLSASVGDRVTITCRASQAIDSYLHWYQQKPGKAPYLLIYSASNLETGVPSRFSGSGSGTDFTLTISSLLPEDFATYYCQQVVWRPFTFGQGTKVEIKRV[human IgG1 Fc with changes left out]
In the case of B23, the “A450 (AU)” value in experiment [1] was determined as 1.1 AU. Moreover, the Standardized EC50, L929 neutralization assay (5-point) in experiment [2] is 1.38 µg/mL.

B24: TNFα dAb Fc variant K42Y (Fc fusion, name in Kabat numbering)
chain: DIQMTQSPSSLSASVGDRVTITCRASQAIDSYLHWYQQKPGYAPKLLIYSASNLETGVPSRFSGSGSGTDFTLTISSLLPEDFATYYCQQVVWRPFTFGQGTKVEIKRV[human IgG1 Fc with changes left out]
Regarding B24, in experiment [1], the “A450 (AU)” value came out at 1.01 AU. Also, in experiment [2], the Standardized EC50, L929 neutralization assay (5-point) was 3.35 µg/mL.

Values taken from patent US20110319597A1 (CAPHALON AUSTRALIA, published 2011).
